This is an account of results in the BET-seq Pho4 binding data (Le et al. 2018).

Some of the results follow. Values were computed here from the reads of four pooled replicates and scatter widely.

In this assay the target is T1, Pho4 (S. cerevisiae) (UniProt P07270).
T1 sequence: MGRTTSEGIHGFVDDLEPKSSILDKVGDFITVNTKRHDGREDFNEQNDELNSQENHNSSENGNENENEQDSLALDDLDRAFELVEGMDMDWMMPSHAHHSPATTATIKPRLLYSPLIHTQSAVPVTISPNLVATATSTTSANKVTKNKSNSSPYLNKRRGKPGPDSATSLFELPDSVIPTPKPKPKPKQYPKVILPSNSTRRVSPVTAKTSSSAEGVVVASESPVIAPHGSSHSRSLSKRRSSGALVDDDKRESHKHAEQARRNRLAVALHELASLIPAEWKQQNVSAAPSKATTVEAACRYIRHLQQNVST
In words: relative binding free energy (BET-seq); higher = weaker binding. The settings on record: reference: library average.
AAGTTCACGTGGGGCT: the “relative binding free energy” value worked out at 0.12 kcal/mol.
The result for TTCACCACGTGTGGTG reads -0.05 kcal/mol.
The result for TAATGCACGTGTTACT reads 0.02 kcal/mol; that for TGGTGCACGTGCTCGG, -0.05 kcal/mol; that for TAGGTCACGTGGTCGG, 0.01 kcal/mol.
The figure for AGTCTCACGTGTGTGC is 0.11 kcal/mol.
Take AGAGTCACGTGTTAGA: the “relative binding free energy” value came to 0.21 kcal/mol.
The figure for TGTGTCACGTGTTCTA is 0.11 kcal/mol; for TATGGCACGTGCACGT it is -0.13 kcal/mol.
For ATGGACACGTGTGGCA, the “relative binding free energy” value is 0.05 kcal/mol.
The result for CGGCACACGTGAGGTG reads 0.24 kcal/mol.
The result for CTCTGCACGTGGGTGG reads -0.18 kcal/mol; that for TCAGTCACGTGCTGGT, 0.04 kcal/mol.
The figure for GGCCTCACGTGGTTTT is 0.24 kcal/mol; for AGTGACACGTGCGTTT it is -0.09 kcal/mol.
As for CTTTGCACGTGGTGGA, the “relative binding free energy” value was -0.11 kcal/mol.
The figure for AGTGGCACGTGGGTAA is -0.19 kcal/mol.
The result for GGTGTCACGTGAGCGA reads 0.37 kcal/mol; that for AATTGCACGTGTTATG, 0.03 kcal/mol.
The figure for TGGTTCACGTGAAAGA is 0.43 kcal/mol; for TTGAGCACGTGCGCGT it is -0.28 kcal/mol.
As for TTCTACACGTGAGTGT, the “relative binding free energy” value came out at 0.34 kcal/mol.
The result for TGAGGCACGTGAGCGT reads 0.02 kcal/mol; that for TTCGGCACGTGTATGC, 0.04 kcal/mol.
The figure for GCGGTCACGTGTGGCT is 0.02 kcal/mol.
The figure for TTATGCACGTGGGTGT is -0.15 kcal/mol; for AATGTCACGTGGACGT it is -0.01 kcal/mol.
As for GTTGGCACGTGCTAGA, the “relative binding free energy” value was -0.09 kcal/mol.
The figure for GGAGCCACGTGTAGTG is -0.01 kcal/mol; for CATGTCACGTGTATTG it is 0.12 kcal/mol; for TTCAGCACGTGAGGAG it is 0.16 kcal/mol.
The figure for AGACGCACGTGGTTTG is -0.23 kcal/mol; for TTTTACACGTGAGAAT it is 0.27 kcal/mol; for GGATGCACGTGAGATG it is 0.31 kcal/mol.
The result for TATTACACGTGTTTTG reads 0.03 kcal/mol.
On to TGTAACACGTGGTCTA, for which the “relative binding free energy” value was -0.06 kcal/mol.
In the case of GTGTACACGTGCGTAG, the “relative binding free energy” value is 0.03 kcal/mol.
The result for AGCGTCACGTGGTCGG reads -0.07 kcal/mol; that for GGGCACACGTGATGTG, 0.22 kcal/mol; that for ATGTGCACGTGGCTTT, -0.13 kcal/mol.
The result for GGAGGCACGTGATAAG reads 0.11 kcal/mol; that for TTGCGCACGTGTTGGT, -0.09 kcal/mol.
The figure for TGGCGCACGTGGGAAA is 0.05 kcal/mol; for AAAATCACGTGGGTTA it is 0.06 kcal/mol; for TTTTACACGTGGTTTA it is 0.12 kcal/mol.
Regarding GATGTCACGTGAAGAT, the “relative binding free energy” value worked out at 0.19 kcal/mol.
The result for ATTAGCACGTGGCGTT reads -0.14 kcal/mol; that for ACTAGCACGTGGTAAG, 0.07 kcal/mol.
For the sequence GTGGGCACGTGCCGAG, the “relative binding free energy” value is -0.2 kcal/mol.
The result for ACCGGCACGTGGGGTA reads -0.25 kcal/mol.
The figure for TTATACACGTGGTGGA is 0.06 kcal/mol; for TAGTTCACGTGCGGGC it is 0.38 kcal/mol.
The figure for TGGAGCACGTGGGCAT is -0.24 kcal/mol.
In the case of ACTTACACGTGTGTTT, the “relative binding free energy” value was 0.19 kcal/mol.
The figure for ATAGGCACGTGTTAGA is -0.12 kcal/mol; for GAGCGCACGTGTAGTT it is -0.04 kcal/mol.
The figure for ATAGGCACGTGTAATT is -0.08 kcal/mol; for ATATTCACGTGTTACA it is 0.3 kcal/mol; for CTGTGCACGTGATAGT it is -0.05 kcal/mol.
The result for TTTGACACGTGGCATG reads -0.08 kcal/mol; that for GTAGACACGTGTTGGA, 0.03 kcal/mol.
On to CAATGCACGTGTGGGA, for which the “relative binding free energy” value was determined as 0.06 kcal/mol.
The figure for TGGTTCACGTGGTTAC is 0.26 kcal/mol; for ATAGTCACGTGGGGGT it is -0.07 kcal/mol.
With ATATCCACGTGTCGTG, the “relative binding free energy” value was 0.16 kcal/mol.
The figure for ATCTGCACGTGGGGTT is -0.19 kcal/mol.
For GTGGTCACGTGAGAAT, the “relative binding free energy” value came out at 0.33 kcal/mol.
The result for GGTGGCACGTGCTTGA reads -0.12 kcal/mol; that for CGTGTCACGTGGTCTA, -0.03 kcal/mol.
The figure for TTTTACACGTGAGGTC is 0.25 kcal/mol.
The result for TTACGCACGTGTAGTA reads -0.17 kcal/mol.
Regarding TGCGTCACGTGTGTGC, the “relative binding free energy” value came out at 0.1 kcal/mol.
The result for ATATACACGTGATGTA reads 0.05 kcal/mol.
The result for TTACTCACGTGTAGGT reads 0.09 kcal/mol.
The result for AGTAGCACGTGTGAGG reads -0.1 kcal/mol; that for GAAGACACGTGAGGTT, 0.32 kcal/mol.
Take TGTGTCACGTGTCCTG: the “relative binding free energy” value amounted to 0.06 kcal/mol.
The figure for ACTAGCACGTGTAGTT is 0.06 kcal/mol; for ATATTCACGTGTCTAT it is 0.11 kcal/mol; for TCGGGCACGTGCTAGG it is -0.21 kcal/mol.
As to ATTGGCACGTGATGTC, the “relative binding free energy” value was found to be 0.09 kcal/mol.
The result for TGTCTCACGTGGTGTC reads 0.13 kcal/mol; that for GGACGCACGTGGGTGA, -0.28 kcal/mol.
The figure for AAGATCACGTGTTTTG is 0.05 kcal/mol; for AAGTACACGTGGGGGC it is -0.01 kcal/mol.
As to TCATTCACGTGTTGGG, the “relative binding free energy” value was found to be 0.29 kcal/mol.
The figure for AGTTACACGTGCGGTA is -0.07 kcal/mol; for CTAAGCACGTGTGTTA it is 0.13 kcal/mol; for ACAGACACGTGTTGGG it is 0.01 kcal/mol.
The result for CATTACACGTGTTTTA reads 0.14 kcal/mol; that for ATTAACACGTGAGTGG, 0.12 kcal/mol.
The figure for GGCTGCACGTGCGAGT is 0.04 kcal/mol; for GGGTCCACGTGATGTA it is 0.28 kcal/mol.
Consider TACATCACGTGTTTTA, for which the “relative binding free energy” value worked out at 0.06 kcal/mol.
For the sequence CGTGGCACGTGTTTGC, the “relative binding free energy” value is -0.14 kcal/mol.
The result for ATGAACACGTGTTATG reads -0.05 kcal/mol; that for CGGTGCACGTGTTTAT, 0.07 kcal/mol.
The figure for GCCTGCACGTGAGTGT is 0.31 kcal/mol; for ATTTGCACGTGATAGA it is -0.01 kcal/mol; for GATTTCACGTGGAGGC it is 0.23 kcal/mol.
Take TGAGGCACGTGTGGTT: the “relative binding free energy” value stood at 0.07 kcal/mol.
The result for CGGCTCACGTGTTTGA reads 0.31 kcal/mol; that for TGCGTCACGTGTTTAA, -0.06 kcal/mol.
Turning to CAGGGCACGTGTAGGA, the “relative binding free energy” value was -0.06 kcal/mol.
As for GGCTACACGTGTGTTT, the “relative binding free energy” value was determined as 0.12 kcal/mol.
The figure for TTATACACGTGGGTCT is -0.08 kcal/mol.
The figure for TTTGGCACGTGCTCAT is -0.12 kcal/mol; for GTGTACACGTGGTGAC it is -0.04 kcal/mol; for GGATACACGTGTTAAG it is 0.32 kcal/mol.
The result for GGGCGCACGTGGGGTA reads -0.21 kcal/mol.
As for TTTAGCACGTGATTTG, the “relative binding free energy” value was 0.1 kcal/mol.
The result for GCTTACACGTGGTGTA reads 0.17 kcal/mol.
TTACTCACGTGATAGT: the “relative binding free energy” value is 0.3 kcal/mol.
The figure for TATCACACGTGAGTGT is 0.22 kcal/mol; for ATGTACACGTGGGTTG it is -0.11 kcal/mol.
